Laboratory results reported in PubChem BioAssay AID493208 (National Center for Advancing Translational Sciences (NCATS), 2011).
In all, about 44,000 compounds went through this assay and about 340 (0.77%) were called active. About 5% were inconclusive and are not listed. Calls follow the shape of the dose curve; as a rule, active = well fitted inhibition curve with a large enough effect; inconclusive = small, poorly fitted or top-dose-only effect; inactive = flat fitted curve, though single readings scatter. The list shows a part of the results.

Test: Acumen qHTS Assay for Inhibitors of the mTORC1 Signaling Pathway in MEF (Tsc2-/-, p53-/-) Cells: Sytravon;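 also: plate controls were DMSO for no effect and rapamycin for full effect; nearly all actives have a fitted effect of over 50% in size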
Details: phospho-rpS6 immunofluorescence/PI, 24 h; series mostly up to 38.3 µM; activity change, negative = inhibition: at the top concentration
How it was run: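 Cell-based qHTS: Tsc2-/- p53-/- MEF, 24 h cpd, 37 °C; fix/perm, anti-phospho-S6 Alexa-488 + PI; Acumen 488 nm scan; pS6/PI ratio, % positive cells; rapamycin 7.5 nM = inhibition ref; PI count = viability.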

Activity change, negative = inhibition, inactive:
O=C(Cn1nnc(-c2ccc(Cl)cc2)n1)NCc1ccc(F)cc1 1.78%, COc1ccccc1N1CCN(C(=O)CCNS(=O)(=O)c2ccc3c(c2)CCN3C(=O)C2CC2)CC1 -0.662%, COc1ccc(Cl)cc1NC(=O)CSC1=Nc2ccccc2C2=NC(CC(=O)NCc3ccc4c(c3)OCO4)C(=O)N12 (stereo unspecified) 0.646%, Cc1ccc(NC(=O)c2cnc(SCC(=O)Nc3cc(C)on3)n(C)c2=O)cc1 0.958%, C=CCc1ccccc1OCC(O)CN1CCN(c2ccccc2)CC1 (stereo unspecified) 7.22%, COc1ccccc1C(=O)Nc1ccc2c(c1)nc(CN1CCCCC1)n2C 3.71%, Cc1cc(C)n2nc(SCC(=O)Nc3cccc(C(F)(F)F)c3)nc2n1 1.91%, CCn1c(=O)n(CC)c2cc(N3CCCCC3)c(NC(=O)Nc3ccccc3C(F)(F)F)cc21 -0.922%, CCC(Oc1ccc(F)cc1)C(=O)Nc1nc(-c2ccc(F)cc2)ns1 (stereo unspecified) -11.5%, COc1ccc(C(CC(=O)NCc2ccccc2)N2Cc3ccccc3C2=O)cc1 (stereo unspecified) -7.41%, CCOC(=O)c1ccc(NC(=O)CC2C(=O)N(c3cccc(OC)c3)C(=O)N2Cc2ccc(OC)cc2)cc1 (stereo unspecified) 2.01%, CCc1ccccc1NC(=O)c1cnc2sc(N3CCOCC3)nn2c1=O -10.1%, CC(C)c1cnc2c(c1SCC(=O)NCc1ccccc1)c(=O)n(C)c(=O)n2C 1.02%, Cc1ccccc1NC(=O)CSc1nc(=O)n(CCN2CCOCC2)c2c1CCC2 -0.827%, Cc1sc2c(c1C)c(=O)n(-c1cccc(C(F)(F)F)c1)c(=O)n2Cc1ccc(F)cc1 0.486%, COC(=O)c1ccc(NC(=O)CCc2c(C)nc3c(c2C)c(=O)n(C)c(=O)n3C)cc1 -10.4%, COc1ccccc1Cc1nc2ccccc2nc1SCC(=O)Nc1cccc(Cl)c1C -27%, COc1cc(NC(=O)CSC2=Nc3ccccc3N=C(c3ccc(F)cc3)C2)cc(OC)c1 5.63%, COc1ccc(CNC(=O)c2cnc3cc(C)ccn3c2=O)cc1 -2.87%, CCOCN(C(=O)CSc1nc2ccccc2[nH]1)c1c(C)cccc1CC 2.96%, CCOC(=O)c1c(C)oc2nc(C)nc(NCc3cccc(OC)c3)c12 -0.713%, O=C(c1ccccc1)c1ccc2nc(Nc3ccccc3Cl)c3nncn3c2c1 5.24%, CCCCN(CC)C(=O)Cn1nc(C)c2c(C)n(-c3ccccc3)nc2c1=O -1.51%, CCOC(=O)c1cc(OC(=O)c2ccc(OC)c(OC)c2)n(-c2ccccc2)n1 -5.14%, Cc1ccc(N2CC(C(=O)Nc3ccc(Cl)cc3Cl)CC2=O)cc1 (stereo unspecified) -6.93%, Cc1cccc(Cn2c(SCc3ccc(C(=O)NC4CCCCC4)cc3)nc3cccnc32)c1 -11.6%, COc1ccccc1CNC(=O)CCCn1c(=O)c2ccccc2n(Cc2ccccc2F)c1=O -11.6%, COc1ccccc1NC(=O)CCNS(=O)(=O)c1ccc2c(c1)CCCC(=O)N2 5.14%, CCn1c(=O)cc(SCC(=O)N2CCN(c3cc(C)ccc3C)CC2)c2ccccc21 0.123%, O=C(CSc1nnc(-c2ccccc2)o1)N1CCCc2ccccc21 -15.2%, CCOc1ccccc1CNC(=O)c1cnc2sc(N3CCC(C)CC3)nn2c1=O -16.2%, COc1ccc(C(=O)Nc2nnc(S(=O)(=O)N3CCOCC3)s2)cc1 -27.5%, CCc1ccc(-c2csc(-c3cc4cc(Br)ccc4oc3=O)n2)cc1 -1.54%, Cc1nn(C(C)C(=O)NCc2cccc(F)c2)c(=O)c2c1sc1ccccc12 (stereo unspecified) -0.231%, CCN(CC)C(=O)Cn1cc(SCC(=O)Nc2ccc(C)cc2)c2ccccc21 -4.43%, Cc1ccc(C)c(N2CCN(C(=O)Cn3nc(Cc4cccnc4)c4ccccc4c3=O)CC2)c1 -1.02%, COc1ccc(C)cc1NC(=O)C(NS(=O)(=O)c1cccc2nsnc12)c1ccccc1 (stereo unspecified) -14%, CCOC(=O)N1CCc2c(sc3c2c(=O)n(-c2ccc(Cl)cc2)c(=O)n3CC(=O)Nc2ccccc2)C1 1.41%, CCn1c2ccc(F)cc2c2nnc(SCCN3CCCCC3)nc21 -2.42%, Cc1cccc(CNC(=O)C2CCN(c3nc4ccc(Cl)cc4[nH]3)CC2)c1 1.92%, Cc1cc(C)c2c(C)c(C(=O)N3CCC(c4nc5ccccc5s4)CC3)oc2c1 2.57%, Cc1nc2c3ccccc3nc(NNC(=O)CCC(=O)N3CCN(c4ccccc4F)CC3)n2n1 -16.9%, COc1ccc(C2Nc3ccccc3-c3nnc(SC)nc3O2)cc1C (stereo unspecified) 0.744%, COc1cc(C2c3c(oc4ccc(C)cc4c3=O)C(=O)N2Cc2ccc(F)cc2)ccc1O (stereo unspecified) 6.51%, Cc1ccc(C(=O)Nc2ccccc2F)cc1S(=O)(=O)N1CCOCC1 2.72%, Cc1ccc(NC(=O)CCC(=O)N2CCOc3ccccc32)c(Cl)c1 -13.4%, Cc1nc2cccnc2n1-c1cccc(C(=O)NCCc2ccc(Cl)cc2)c1 -4.38%, N#Cc1ccccc1NC(=O)C(=O)NCC(c1ccc2c(c1)OCO2)N1CCN(c2ccccc2)CC1 (stereo unspecified) -1.41%, O=C(Nc1ccc2nc(SCC(=O)N3CCCc4ccccc43)sc2c1)c1ccc(F)cc1 -2.71%, COc1cc(CN2CCc3nc(N4CCN(c5ccccc5F)CC4)ncc3C2)ccc1OC(C)C 0.0006%, CCC(=O)N1CCCc2cc(S(=O)(=O)Nc3ccc(C)c(C)c3)ccc21 -1.56%, Cc1c(C(=O)Nc2ccc(Br)cc2F)sc2ncnc(N(C)C3CCCCC3)c12 -6.91%, CCOC(=O)c1c(C)[nH]c(C)c1S(=O)(=O)NCC(=O)N(C)c1ccc(C)c(C)c1 -8.31%, O=C(Nc1c(C(=O)c2ccccc2)oc2ccccc12)c1cc(=O)c2ccccc2o1 4.59%, Cn1cnc(S(=O)(=O)N2CCC(C(=O)N3CCN(c4cccc(C(F)(F)F)c4)CC3)CC2)c1 13%, COc1ccc(NC(=O)CSc2nc(-c3ccccc3)nc3cc(=O)[nH]n23)cc1 6.45%, CSc1ncc(C(=O)Nc2ccccc2C(=O)c2ccccc2)c(C)n1 0%, CCOC(=O)c1cnc2c(OC)cccc2c1Nc1cccc(O)c1 -14.8%, CCN(CC)c1nn2c(=O)c(C(=O)NCc3cccc(C)c3)cnc2s1 4.46%, COc1ccc(Cn2c(SCc3ccc(C(=O)NCCc4ccccc4)cc3)nc3cccnc32)cc1 -0.951%, Cn1c(=O)n(C/C=C/c2ccccc2)c(=O)c2c1nc1n2CCN1c1ccc(Cl)cc1 3.94%, CCOC(=O)c1[nH]c(C)c(CCC(=O)NCc2ccccc2C)c1C 0%, CCn1cc(S(=O)(=O)c2ccc(C)cc2)c(=O)c2cc(F)c(N3CCCCCC3)cc21 -5.3%, Cn1nc(-c2ccccc2F)c2cc(C(=O)N3CCN(c4ccc(F)cc4)CC3)sc21 1.39%, Cc1nn(C(=O)c2cccc(F)c2)c(C)c1S(=O)(=O)N1CCCCCC1 3.5%, CCC(C)NC(=O)Cn1c(=O)n(Cc2ccc(C(=O)NCc3ccccc3OC)cc2)c(=O)c2ccccc21 (stereo unspecified) -7%, CCCN1CCN(CCCNC(=O)Cn2c(-c3cccs3)cc3ccccc32)CC1 1.28%, Cc1ccc(NC(=O)CSc2ncnc3c2sc2ccccc23)cc1C 0%, Cc1cccc(N2CCN(S(=O)(=O)c3ccc(F)c(C(=O)Nc4ccc(C(C)C)cc4)c3)CC2)c1C 2.42%, Cc1ccc(C)c(NC(=O)CSc2nc(=O)n(Cc3ccccn3)c3c2CCC3)c1 3.32%, COc1ccc(OC)c(Nc2ncnc3c2cnn3-c2ccc(C)cc2)c1 1.25%, Cc1cc(C)cc(NS(=O)(=O)c2ccc3[nH]cc(C(=O)N4CCCCCC4)c(=O)c3c2)c1 -11.1%, COc1ccc(-c2noc(CN3CCN(c4cccc(Cl)c4)CC3)n2)cc1 -5.96%, O=C(C1CCC1)N1CCCc2cc(S(=O)(=O)Nc3ccc(F)cc3)ccc21 -1.91%, CCOc1ccc(CC(=O)NC2CC(=O)N(c3ccc(C)c(C)c3)C2)cc1 (stereo unspecified) 1.19%, C#CC(C)(CC)NC(=O)c1cc2c(n(-c3ccc(Cl)cc3)c1=O)CC(C)(C)CC2=O (stereo unspecified) -0.367%, COCCn1c(C)cc(O)c(C(c2ccc(C)cc2)N2CCCCC2)c1=O (stereo unspecified) 10.7%, CC(=O)N1c2ccccc2C(=O)C1N1CCN(c2cccc(C(F)(F)F)c2)CC1 (stereo unspecified) -2.7%, CC(=O)N1CCc2cc(Br)cc(S(=O)(=O)N3CCN(c4cc(C)ccc4C)CC3)c21 2.65%, Cn1cc(-c2cc3n(n2)CCC(=O)N3CC(=O)O)c2ccccc21 -1.71%, Cc1ccccc1OCC(=O)N(Cc1ccc(N(C)C)cc1)CC1CCCO1 (stereo unspecified) 4.64%, OCc1nc2ccccc2n1Cc1c(F)cccc1Cl -0.179%, Cc1cccc(CNC(=O)CCCN2C(=O)CCn3nc(-c4cn(C)c5ccccc45)cc32)c1 0.424%, CCN(CC)c1ccc(NC(=O)c2cc(S(=O)(=O)N3CCc4ccccc43)cn2C)c(C)c1 7.56%, CCN1CCN(c2c(S(=O)(=O)c3ccccc3)cnc3ccc(Cl)cc23)CC1 1.72%, Cc1ccc(OCC(=O)OCc2cc(=O)n3nc(-c4cccs4)sc3n2)cc1 -14%, COc1cccc(NC(=O)C2CCCN(c3nnc(-n4c(C)ccc4C)s3)C2)c1 (stereo unspecified) -26.9%, COc1ccccc1CNC(=O)CCCn1nc(C)c2sc3ccccc3c2c1=O 4.43%, Cc1ccccc1OCC(=O)Nc1ccc2nc(SCC(=O)N(C)c3ccccc3)sc2c1 -1.06%, CC(C)(C)OC(=O)N1CCC(c2c(C(=O)N3CCN(c4ccc(Cl)cc4)CC3)cnn2-c2ccc(F)cc2F)CC1 -2.75%, COc1ccc(Cl)cc1NC(=O)c1cc2ccc3ccc(C)[nH]c3c2n1 -5.32%, Cn1cc(S(=O)(=O)c2ccc(Cl)cc2)c(=O)c2cc(F)c(N3CCCC3)cc21 0.0361%, O=C(c1cc(-c2ccc(Cl)cc2)on1)N(Cc1cccc(F)c1)Cc1ccco1 -1.88%, Cn1c(=O)c2nc(SCC(=O)Nc3cc(Cl)cc(Cl)c3)n(C)c2n(C)c1=O -2.19%, Cc1nc2sccn2c(=O)c1S(=O)(=O)NCc1ccc(F)cc1 1.04%, CCc1ccc(NC(=O)CSc2c(C)cnc3c2c(=O)n(C)c(=O)n3C)cc1 3.96%
